T1: human IGFBP-1 (human, UniProt P08833 26-259)
T1 sequence (looked up): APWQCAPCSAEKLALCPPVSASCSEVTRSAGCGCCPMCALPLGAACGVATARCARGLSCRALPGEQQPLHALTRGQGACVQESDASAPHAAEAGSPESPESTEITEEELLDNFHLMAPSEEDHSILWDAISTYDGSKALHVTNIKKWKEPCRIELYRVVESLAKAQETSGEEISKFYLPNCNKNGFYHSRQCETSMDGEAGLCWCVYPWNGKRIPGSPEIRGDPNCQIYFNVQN


Legend:
human IGFBP-1 = target: T1, human IGFBP-1; experiment: competitive phage ELISA
Experimental: (§1) E. coli cells (XL1-Blue, Stratagene) freshly transformed with phagemid vector were grown overnight in 5 mL 2YT medium (Sambrook et al., supra) in the presence of M13-VCS helper phage (Stratagene). Phage particles were harvested and resuspended in PBS buffer as described in Lowman, H. B., “Phage Display of Peptide Libraries on Protein Scaffolds,” in Cabilly, S. (ed.), Combinatorial Peptide Library Protocols (Humana Press Inc.: Totowa, N.J., 1998), pp. 249-264. Then phage concentrations were normalized to yield a maximal ELISA signal of 0.2-0.4 for each mutant (Lowman, in Cabilly, S. (ed.), supra). Threefold serial dilutions of soluble competitor were prepared on non-absorbent microtiter plates (Nunc, F, 96 wells) with binding buffer (0.5% TWEEN 20%/PBS) containing phage at the previously determined concentrations. […] After blocking, the plates containing immobilized target were washed with 0.05% TWEEN™/PBS buffer and subsequently incubated with 80 μl/well of the premixed phage-competitor solutions for 1 hour at room temperature. […] IC₅₀ values were determined by fitting the binding data to a generic saturation curve (Lowman, in Cabilly, S. (ed.), supra). At least two individual clones of each IGF-1 mutant were assayed. Numbers in Table XIII represent mean±standard deviation of individually assessed IC₅₀ values.

[1] = target: recombinant human IGFBP-3 (human); experiment: competitive phage ELISA
Experimental: as §1

Row | Binder | IC50 (human IGFBP-1) | IC50 [1]
1 | des(1-2)-IGF-1 displayed on phage (ligand, bacteriophage M13, range […]) [letters of about 60 residues not shown]SGGGSGSGDFDYEKMANANKGAMTENADENALQSDAKGKLDSVATDYGAAIDGFIGDVSGLANGNGATGDFAGSNSQMAQVGDGDNSPLMNNFRQYLPSLPQSVECRPFVFSAGKPYEFSIDCDKINLFRGVFAFLLYVATFMYVFSTFANILRNKES | 5 nM | 0.53 nM
2 | IGF-1 S1A displayed on phage (ligand, bacteriophage M13, range […]; G1S-A70V background) [letters of about 80 residues with changes not shown]SGGGSGSGDFDYEKMANANKGAMTENADENALQSDAKGKLDSVATDYGAAIDGFIGDVSGLANGNGATGDFAGSNSQMAQVGDGDNSPLMNNFRQYLPSLPQSVECRPFVFSAGKPYEFSIDCDKINLFRGVFAFLLYVATFMYVFSTFANILRNKES | 5.2 nM | 0.91 nM
3 | IGF-1 S1G displayed on phage (ligand, bacteriophage M13, range […]; S1G on G1S-A70V restores Gly1, leaving A70V) [letters of about 80 residues with changes not shown]SGGGSGSGDFDYEKMANANKGAMTENADENALQSDAKGKLDSVATDYGAAIDGFIGDVSGLANGNGATGDFAGSNSQMAQVGDGDNSPLMNNFRQYLPSLPQSVECRPFVFSAGKPYEFSIDCDKINLFRGVFAFLLYVATFMYVFSTFANILRNKES | 11.2 nM | 0.99 nM

From patent US20090011988A1 (Genentech, published 2009)
